From publication PMC4336329 (PLoS ONE, 2015)
Screen size: about 310,000 compounds; about 2,200 (0.71%) showed an effect of 50% or more. Effects have a minus sign here. The list shows a part of the results.

target: human ether-à-go-go-related gene (hERG) potassium channel (human, UniProt Q12809); assay: primary screen, population patch clamp on CHO cells stably expressing hERG
Sequence (Q12809 whole entry, looked up): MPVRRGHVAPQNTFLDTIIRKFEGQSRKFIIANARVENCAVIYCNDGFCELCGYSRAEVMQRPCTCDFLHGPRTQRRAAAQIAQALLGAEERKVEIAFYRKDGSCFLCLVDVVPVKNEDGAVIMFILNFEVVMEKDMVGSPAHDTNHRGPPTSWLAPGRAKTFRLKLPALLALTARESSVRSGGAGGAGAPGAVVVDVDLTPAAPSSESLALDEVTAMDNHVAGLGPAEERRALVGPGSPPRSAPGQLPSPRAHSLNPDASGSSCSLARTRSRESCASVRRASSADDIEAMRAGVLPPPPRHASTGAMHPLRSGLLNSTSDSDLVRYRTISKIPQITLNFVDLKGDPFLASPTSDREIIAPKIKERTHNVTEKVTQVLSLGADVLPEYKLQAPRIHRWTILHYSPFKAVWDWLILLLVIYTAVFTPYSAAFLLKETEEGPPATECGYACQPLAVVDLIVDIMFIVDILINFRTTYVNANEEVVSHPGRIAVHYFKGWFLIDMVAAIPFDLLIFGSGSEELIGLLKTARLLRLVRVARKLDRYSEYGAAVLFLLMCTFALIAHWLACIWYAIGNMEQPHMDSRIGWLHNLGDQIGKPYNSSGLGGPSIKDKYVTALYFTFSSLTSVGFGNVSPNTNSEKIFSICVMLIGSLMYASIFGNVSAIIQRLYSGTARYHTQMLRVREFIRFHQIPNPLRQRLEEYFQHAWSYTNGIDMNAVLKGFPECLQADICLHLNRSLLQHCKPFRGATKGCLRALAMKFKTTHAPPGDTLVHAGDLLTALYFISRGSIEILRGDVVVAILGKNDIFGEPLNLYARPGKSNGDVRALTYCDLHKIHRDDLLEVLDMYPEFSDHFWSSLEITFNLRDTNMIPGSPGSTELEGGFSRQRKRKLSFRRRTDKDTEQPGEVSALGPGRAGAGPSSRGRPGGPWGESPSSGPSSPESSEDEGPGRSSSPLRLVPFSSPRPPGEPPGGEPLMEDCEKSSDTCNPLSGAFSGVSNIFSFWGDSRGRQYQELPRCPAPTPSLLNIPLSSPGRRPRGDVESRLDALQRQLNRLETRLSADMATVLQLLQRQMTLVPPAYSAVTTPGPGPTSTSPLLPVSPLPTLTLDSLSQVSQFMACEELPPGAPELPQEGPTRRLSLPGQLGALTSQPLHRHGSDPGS

SMILES	hERG current change (%, negative = inhibition) at 1uM [%]
CCOc1ccc(NC(=O)CN(C)C(=O)c2cc([N+](=O)[O-])ccc2N2CCCCC2)cc1OCC	8.33
COc1ccc(NC(=O)CSc2nnnn2Cc2ccccc2)cc1	4.53
CC1CC(OCC(O)C[N+]2(C)CCOCC2)CC(C)(C)C1.[I-] (stereo not drawn)	15
CC(=O)c1ccc(NC(=O)CCn2c(=O)oc3ccccc32)cc1	17.8
C=CCn1c(SCC(=O)NC2(C#N)CCCCC2)nnc1-c1ccncc1	3.96
C=CCn1c(CCSCc2ccccc2)n[nH]c1=S	10.2
COc1cccc(N2CCN(C(=O)/C=C/c3ccco3)CC2)c1	-2.01
Cc1nc2cc(C(=O)O)ccc2s1	12.1
Cc1ccc(-c2nc(CSCC(=O)N3CCOCC3)c(C)o2)cc1	-2.76
COc1cc(C(C)=O)ccc1OCC(O)CN1CCN(c2cc(C)cc(C)c2)CC1 (stereo not drawn)	-10.2
COCCC(=O)N1CCC(Oc2ccc(C(=O)NCc3ncc(C)[nH]3)cc2)CC1	11.6
O=C(NCc1ccccn1)C1CCN(S(=O)(=O)N2CCCCC2)CC1	11.2
CCOC(=O)Cc1cc(=O)n2[nH]c(-c3ccccc3)c(-c3ccccc3)c2n1	16
O=C(CCC1CCCN(C(=O)c2ccc3c(c2)OCCO3)C1)NCc1ccccc1F (stereo not drawn)	6.33
COC(=O)c1c(O)cc(C(C)(C)C)n(-c2ccccc2)c1=O	4.05
Cc1cccc(NC(=O)CN2C(=O)N/C(=C\c3cccn3-c3cccc(C(=O)O)c3)C2=O)c1	13.8
COc1ccc(CCC(=O)OCC(=O)NCc2ccccc2)cc1	12.4
CCCCC1CCC(C(=O)OCC(=O)N(CCOC)c2c(N)n(Cc3ccccc3)c(=O)[nH]c2=O)CC1 (stereo not drawn)	12.9
CCCCN(C(=O)c1ccc([N+](=O)[O-])o1)c1c(N)n(CC(C)C)c(=O)[nH]c1=O	0.207
COc1ccc(S(=O)(=O)N(CC(=O)NC(C)C)Cc2ccccc2)cc1	11.8
COC(=O)c1c(SCC(=O)Nc2ccc(C)c(C)c2)nc(=O)[nH]c1C	5.45
COCCN(C(=S)Nc1ccc(C)c(C)c1)C(C)c1ccco1 (stereo not drawn)	4.68
C/C=C\C=C\C(=O)N1CC2(CC(c3cccc(NC(=O)/C(C)=C\C)c3)=NO2)C[C@H]1C(N)=O (stereo partly drawn)	9.8

SMILES	hERG current change (%, negative = inhibition) at 1uM [%]
CC(C(=O)NCC1CCCO1)N1C(=O)C2C3CC(C(Br)C3Br)C2C1=O (stereo not drawn)	2.97
Cc1ccc(C(=O)OCc2nc3ccsc3c(=O)[nH]2)o1	9.14
COc1ccc(NC(=O)CC2C(=O)N(Cc3ccco3)C(=S)N2C(C)C)cc1 (stereo not drawn)	-6.03
O=C(Nc1ccccc1N1CCCC1)c1ccccc1Cl	9.44
CCn1nnnc1SCC(=O)N1CCN(Cc2ccc3c(c2)OCCO3)CC1	11.7
COC(=O)CN(C#N)c1nc(SC)nc(N(C)C)n1	7.99
Cc1ccc(S(=O)(=O)NCc2ccc(C(=O)NCCCN3CCN(C)CC3)cc2)cc1	13.4
O=C(COC(=O)c1n[nH]c2ccccc12)NC(=O)NC1CCCC1	7.24
O=C(CCS(=O)(=O)c1ccccc1)NC12CC3CC(CC(C3)C1)C2	12.3
CCOC(=O)CSc1nnc(NC(=O)c2cccc(S(=O)(=O)N3CCCCCC3)c2)s1	7.18
COc1ccccc1NC(=O)CSc1nnc(C)o1	11.4
CCOc1cccc(NC(=O)CSc2nncn2N)c1	9.83
COc1cccc(C(=O)Nc2ccc(NC(=O)C3CC3)cn2)c1	8.76
CCC1CCCCN1CCCNC(=O)c1c(O)nc2c(C)cccn2c1=O (stereo not drawn)	9.14
COc1ccc(-c2nc3c4c(ncn3n2)-c2ccccc2CC42CCCC2)cc1	9.98
CCS(=O)(=O)N1CCCC(C(=O)NCCN2CCC(Cc3ccccc3)CC2)C1 (stereo not drawn)	-11.4
CCOc1ccc(/C=N/NC(=O)c2cc(-c3ccccc3)nc3ccccc23)cc1O	3.53
CCOC(=O)N1CCN(CCC(=O)Nc2ccccc2)CC1	12
CS(=O)(=O)N1CCC2(CC1)OCCN2S(=O)(=O)c1ccccc1	-2.42
COc1ccc(OCCOC(=O)CNC(=O)c2ccc(C)cc2)cc1	4.75
Cc1oc(-c2ccc(-c3ccccc3)cc2)nc1CN(C)C1CCOC1 (stereo not drawn)	-2.9
Cc1nc2ccc(S(=O)(=O)NCC(=O)N3CCN(c4ccccn4)CC3)cc2s1	10.9
CC(C)N(Cc1ccccc1)C(=O)CC(=O)N(Cc1ccccc1)C(C)C	11.1

SMILES	hERG current change (%, negative = inhibition) at 1uM [%]
Cc1ccc(-n2ncc3c2CCCC3NC(=O)c2ccccc2N2CCOCC2)cc1C (stereo not drawn)	4.62
CCc1ccc(NC(=O)CSc2nnc(C3CC3)n2CC2CCCO2)cc1 (stereo not drawn)	6.4
C=CCN1C(=O)/C(=C2\SC(N3CCOCC3)=NC2=O)c2cc(Br)ccc21	8.18
CCCOc1cccc(C(=O)NC(=S)Nc2cccc(NC(=O)c3ccccc3Cl)c2)c1	8.78
O=C(NCC1CCCO1)c1cc2c([nH]c3ccccc32)c(-c2cccc(Br)c2)n1 (stereo not drawn)	-0.0832
CC(Oc1ccc(Cl)cc1)C(=O)NCCCn1ccnc1 (stereo not drawn)	5.41
Cn1c2ccccc2c2cnn(CC(=O)NCCCN3CCN(c4ccccc4F)CC3)c(=O)c21	-41.8
Cc1ccc(OCC(=O)Nc2ccccc2-c2ccccc2)cc1	14.6
O=C(CSc1nnc(-c2ccncc2)o1)Nc1cc(F)ccc1F	10.4
CCOCCCNC(=O)C(NC(=O)CNC(=O)c1ccccc1)c1ccc(OC)cc1 (stereo not drawn)	14
COc1cccc(NC(=O)C2CCN(S(=O)(=O)c3ccc4[nH]c(=O)oc4c3)CC2)c1	13
S=C(NCc1ccccc1)NCc1ccccn1	9.06
CCOc1ccc(NC(=O)CC2C(=O)NCCN2C(=O)c2ccc(Cl)cc2)cc1 (stereo not drawn)	-0.94
CCOc1ccc(N(CC(=O)NC2CCCC2)S(=O)(=O)c2ccccc2)cc1	8.51
CCOC(=O)NC(=O)c1cn(CCN(C)C)c(=O)[nH]c1=O	14
CCOc1cc(N2CCOCC2)c(OCC)cc1NC(=O)COC(=O)COc1cc(C)cc(C)c1	12.2
Cc1cc([N+](=O)[O-])ccc1NCc1ccc2c(c1)OCCO2	14.3
Cc1c(O)cc2c(c1O)C(=O)CC(c1ccccc1)O2 (stereo not drawn)	4.54
Cc1ccccc1OCc1nc2ccccc2[nH]1	11.7
COc1cc(Cl)ccc1NC(=O)COc1ccccc1C(=O)N1CCN(c2ccc(O)cc2)CC1	-27.3
COc1cc(/C=C(\C#N)c2nc3ccccc3[nH]2)ccc1O	5.6
CC(C)CCc1noc(CN2CCN(c3ccc(Cl)cn3)CC2)n1	1.59
O=S(=O)(NCC(c1cccnc1)N1CCOCC1)c1ccccc1 (stereo not drawn)	5.87

SMILES	hERG current change (%, negative = inhibition) at 1uM [%]
CN(CCOc1ccccc1)c1ccc(S(=O)(=O)N2CCCCC2)cn1	-6.08
Cc1c(C(=O)Nc2c3c(nn2C(C)(C)C)CS(=O)(=O)C3)cccc1[N+](=O)[O-]	11.8
CCCCOc1ccc(C(=O)N2CCCCCC2)cc1	1.28
Cc1ccc2[nH]c(-c3ccccc3)c(CN3CCCC3)c(=O)c2c1	10.5
Nc1[nH]nc2c1NN(c1ccc(Cl)cc1Cl)N2	14.1
CSc1ccc(/C=C2\NC(=O)NC2=O)cc1	8.77
Clc1ccc(Cl)c(OCCCCN2CCCCC2)c1	-3.66
COc1cc(C(=O)NC(C)c2ccccc2)ccc1OCC(=O)N1CCOCC1 (stereo not drawn)	5.96
COc1ccc(C2NC(=O)c3ccccc3N2)cc1OC (stereo not drawn)	13.2
C=CCOn1c(C)c(C(C)=O)c2c3nonc3ccc21	13.1
O=C(CCN1C(=O)/C(=C\c2ccccc2)SC1=S)NNC(=O)c1ccccc1O	14.5
CCc1nc(SCC(=O)Nc2ccc(C(=O)O)cc2)n[nH]1	14.2
O=C(Nc1cccc(C(=O)O)c1)/C(=C\C=C\c1ccccc1)NC(=O)c1ccccc1	13.5
O=C(Nc1ccc2c(c1)OCO2)C1CC(=O)N(c2cccc(Cl)c2)C1 (stereo not drawn)	6.68
CCCS(=O)(=O)N1CCCC(C(=O)NCCc2ccc(Cl)cc2)C1 (stereo not drawn)	-15.1
CCOC(=O)c1ccccc1NC(=O)COC(=O)C1CCN(S(=O)(=O)c2ccccc2C(=O)OC)CC1	7.8
Cc1nc(NCc2ccc3c(c2)OCO3)c2oc3ccccc3c2n1	10.6
Clc1cccc(CN2CCCCCCC2)c1Cl	5.7
C=CCn1c(-c2cc(-c3ccccc3)sc2N)n[nH]c1=S	6.63
Cc1c(C)n(C(=O)CSc2ncn[nH]2)c2ccccc12	10.1
CN(C)C(=O)C1Cc2ccccc2CN1S(=O)(=O)c1ccc(F)cc1 (stereo not drawn)	14.3
